The other results are listed elsewhere or left out.
Tested on: PfSIP2 AP2 domain 1 (GST-tagged)
Assay: gcPBM binding intensity (ln(normalized median fluorescence intensity)); higher = stronger DNA binding
Outline: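 In this array assay, P. falciparum DNA-binding domains with a GST tag, expressed in E. coli, were applied for 1 h to primer-extended double-stranded 36-bp intergenic genomic probes and negative controls on an Agilent 4 × 180k array. Bound protein was visualised with Alexa488 anti-GST antibody at 488 nm. Binding intensity is the highest Masliner-normalised natural-log median intensity across replicate spots of either probe orientation.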

Sequence | gcPBM binding intensity (ln)
ACAATATATAAAATATGTACATAATATATATAATGA [XGTACX_site8731] | 7.03
CCTAATTTTATTAGGGTGCATTTTTAGTTAAATATA | 11.2
TAAGTTATATGTACTACACACGTACACAAAATAAGA [CACACA_site9237] | 7.39
ATCCACAAATTAACAAGTACATATATATATATATAT [XGTACX_site1267] | 9.83
TGATGAAAATTTTTCTGTACAAAAAGTATGAAGGTA [XGTACX_site8901] | 7.51
AATTTAATATAATGCACACATAAAAAAAAATTCAAA [CACACA_site2062] | 7.16
ATGAAAACCATGACGGGTACTCATTTATTATTTTAT [XGTACX_site6724] | 6.52
ATTTATTTGTTTATTTGTTTATTTGTTTATTTGTTT [CACACA_negctrl_site1386] | 7.1
TTAAGAATCTATACTAGTACATATATGTATACAAGC [XGTACX_site8025] | 6.95
ATTGTGTTAATAAAATGTACATTTTCTCTACTTTAA [XGTACX_site1199] | 6.95
TGTAGAACAAAAAATTGTACATATTTGTAAAAAAAA [XGTACX_site3850] | 6.85
TATATATATATGTGTAGTACAACAAATATGAAAAAT [XGTACX_site4059] | 8.79
GTATATATATATAAAAGTACATGTTATGAAAAAAAA [XGTACX_site5410] | 7.15
TATATATAGAAACACACACACATATATATATATATA [CACACA_site773] | 9.29
TTTTTTCTCAAAAAAAAAACCTATGGTTATTAAGAT [XGTACX_negctrl_site534] | 6.77
ATTAAGTATATTTCTGCACACAAAAAAAAAAACCAA [CACACA_site9342] | 7.39
TTATAATTCTATTATCTGTTCTTTTTATATTTTTTT [CACACA_negctrl_site855] | 6.54
TTCTAAACACATTGACAAATTAATATATTACAGCAA [GTGCAC_negctrl_site121] | 6.98
TTATTTTTCAATGAAAAGGATTATATATATATATAT [CACACA_negctrl_site757] | 9.42
TATAAGAAAAATAACACACACATAAACATAAATACA [CACACA_site5536] | 7.03
AAAAAAAAAAAAAAATGTACATAAAAATGATATAAT [XGTACX_site4096] | 7.36
AAAATTTATAGTATGGTGCATAAAAATATATATATA | 10.3
TTCAAGATTTATTATACACACATATTAAAATATATA [CACACA_site4479] | 6.89

Sequence | gcPBM binding intensity (ln)
AAACATTTTCATTTGACACACATCATATATTTATAT [CACACA_site1794] | 7.04
AATCTATCAAAGTGTACATGCAATAAAAAAAAAAAA [TGCATGCA_site103] | 7.09
AAAAAATTATTATGAACACACATTTATTATATTCAT [CACACA_site1566] | 6.78
CTTTCATTTCTATCTACACACATATTTTTTCCAAGT [CACACA_site2972] | 7.32
TTAATGTACAGACACCCACACACAAACAAATATATA [CACACA_site8888] | 7.2
AAAAGAAAAAAAAGTACACACATGTATATTAAGCGT [CACACA_site5402] | 7.19
TTTTTTTTTCCCCCATGTACATAAATAAGTATATCT [XGTACX_site6965] | 8.17
GCGTGCGTGTACTTAACACACATAATATGTATTTAT [CACACA_site1247] | 7.08
TATATATATAAATACAGTACATATATAATATTTTGA [XGTACX_site637] | 7.81
AAAAATATATATATATATATATATATATTATTTTTT [TGCATGCA_negctrl_site378] | 7.6
TAACTTAATTTTAATGCACACAATTTATATATATAT [CACACA_site6022] | 9.24
AATTATATGAAATAAACACACATATGCAATATTGCA [CACACA_site6988] | 6.98
ATATGTACTATACGCACACACACTCACATATATATA [CACACA_site3239] | 7.51
ATTATATATATCAGGTGTACGTAAAAAAAATGGACG [XGTACX_site1028] | 7.99
GAGGTCTTTTTTAATGTGCACATATATATATATATA | 9.79
TTTTTTTATTAATGTAGTACAATATAATGTTATATT [XGTACX_site2295] | 7.18
TTTTTTTTTTTTTTTACACACTCCAATAAAAAAGAA [CACACA_site2119] | 7.2
TATAAAAATATATTTACACACTATAAATATCGAAAG [CACACA_site6896] | 6.97
TAATTTATAAATATAATATTTATGTATATGATGTTT [CACACA_negctrl_site464] | 6.99
TACAACTTAATATGTACACACAAATATATATATATA [CACACA_site5138] | 9.36
GAAATACATTTTAAAAAATAAGTAATTATAAAATAA [TGCATGCA_negctrl_site303] | 6.77
ATTCATCCAATAATGTGAATTATCATGATAAACTTA [TGCATGCA_negctrl_site406] | 6.62
TTTATAAATAAACACACACACATGTGAACATAAAAA [CACACA_site5110] | 7.02

Sequence | gcPBM binding intensity (ln)
GATACCTATAGACACACACACATACCTATATACATA [CACACA_site7586] | 7.34
ATCAAAATTGTCATTACACACCTTTATTTTTAGAAT [CACACA_site1813] | 6.94
ATATATGTAAATGAATGTACATTATTTTATATATTA [XGTACX_site8460] | 7.01
ATTATTCTATATGAAACATGCATACATTTGTATTTT [TGCATGCA_site823] | 7.12
TCCAATAATTTATAAAAAAAAAAAGGGAAAATGTAT [TGCATGCA_negctrl_site492] | 6.8
TTGGATTTTTCCTATGAACACACGGGGTTACAATTA [CACACA_site449] | 6.73
TTAATATGAGAATAATGTACAAGAAAATATTACATA [XGTACX_site6609] | 6.87
ATATATTTATTATTAACATGCAATCATTATATATAA [TGCATGCA_site404] | 6.88
AAAATAATAAAAAACTGTACGAATTAAAAATTAACA [XGTACX_site8454] | 7.03
ATAGATAAATTTACGGGTACTAAAATGGAATATGAA [XGTACX_site8637] | 7.35
TATTTTACAATAACAATACACACTATAATATATATA [CACACA_site1391] | 7.57
TGTGTTCAGTATTGCACACACACAACCAAATAAAAA [CACACA_site379] | 7.22
ATTCACATATTATCTTTACACACTATATATAAGTTT [CACACA_site8901] | 7.32
CATCAAAATGCTACATGTACATATATATAATATATT [XGTACX_site5207] | 7.28
AATATATATAAATAAACACACACAAATATAATAAAA [CACACA_site9176] | 7.04
GAAATGAACAAGTGGGTGCGTATTAATTACATATTA | 9.77
TTTTTAATTTTTTTTAAACACACACCGTACATTCAA [CACACA_site7925] | 7.29
TATATACTTTATAAATGTACATATAATGTATTATTT [XGTACX_site7313] | 6.98
TATATATATACATATTGTACATATTACATGCTATTA [XGTACX_site1184] | 8.16
CATTTTCATTTTAAGGTGCATTAATATTTATTTTAA [GTGCAC_site9437] | 10.4
TCATTTTAAATATGTGTGCACGTTATAATTTACACA | 9.54
CAAATTGGGAAATTTTGTACATATAATAAGGATACC [XGTACX_site7728] | 7.28
GATAATGAATGATGCACACTAAAAATATTCTACAAC [CACACA_site3622] | 7.64

Sequence | gcPBM binding intensity (ln)
CCGTATATTTTATATAGTACTCATCATATATTTTTA [XGTACX_site5560] | 6.96
AAACTCTCTTATATTAAACACACATATATATATGTA [CACACA_site8865] | 7.01
AAACAAAAGATATATACACACTAAACATAAAAAAAA [CACACA_site6161] | 6.84
AAAAACTTTTCAAGTAGTACCATATCTACAATAGTA [XGTACX_site8927] | 6.83
CCTTTATTAAATAAATGTACATATTTTTGTGTTCTT [XGTACX_site2052] | 7.19
AATAAAAATAAAATTGTATATTTTAAATGAAAATAA [CACACA_negctrl_site898] | 6.73
GTTGGTAGGATGTATGGTACACGTAGTATTTTTCTT [XGTACX_site2] | 6.95
ACATATGAAAAATATGCATGCAAATATTATTTAACA [TGCATGCA_site802] | 6.88
TATGTATGTTAGTGTGCACACATAAATATTATATAT [CACACA_site9121] | 9.26
TTTTTAAAATTTTTAAAAATATTATGTTAAATATAT [CACACA_negctrl_site415] | 6.86
TTGAAAGAAAATAAAATAAAATAAAATAAAATAAAA [CACACA_negctrl_site859] | 6.82
AAAAAAAAAAAAATCTCACACATAAAGAGATTATGA [CACACA_site4408] | 6.95
ATATATATGTATTTATGTACATATTATTTTTCTTAA [XGTACX_site8169] | 7.16
AATAAATAAAAATATATATATATAATATACATGTGT [TGCATGCA_negctrl_site369] | 7.19
TTTTATTTCAATCCACAAGGGATAAAATAAAGTTTT [CACACA_negctrl_site699] | 6.71
GGATGTATTTATATGTGTATGTGTTTGGAAATATGT [XGTACX_negctrl_site99] | 7.33
TACATGAATATATAAAGAAAAAAAAAAAAACACACA [XGTACX_negctrl_site350] | 7.01
TATAAATTATATATTTGTACGTATATCACATATATA [XGTACX_site7053] | 7.08
TATATGTTATATTTAACACACATATAAGGTACATAT [CACACA_site612] | 7.06
TTTATTGAATAAAATGCACACGCATGCGTTATTTAT [CACACA_site9154] | 6.92

Reference: the supplement of paper PMC11417369
